This is an account of results in the supplement of paper PMC10037445.

Structures are written as SMILES. Several values for one entry are separate records, joined by “and”; a condition that tells them apart may be missing. Identical values can stand only once. Over roughly 2,900 compounds, “NF-kB SEAP reporter activity, fold change vs agonist alone” has its median near 0.99; the highest 2% begin near 2.6. The list shows a part of the results.

Test [1] relates to RAW-Dual. The test is described as follows: NF-kB SEAP reporter activity, fold change vs agonist alone; cytotoxicity flag (confluency mask): not cytotoxic; higher = enhanced NF-kB activity. The essentials:
(§1)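 Library stock was pin-tooled at 50 nL into 384-well plates of RAW-Dual macrophages (50,000 cells/well, DMEM), followed 1 h later by a PRR agonist, and the cells were kept at 37 °C, 5% CO2. Supernatant collected after 20 hours was read for IRF by QuantiLuc luminescence and for NF-κB by QuantiBlue absorbance at 620 nm. Reporter activity is fold change over agonist-alone wells, and a well counted as cytotoxic when its IncuCyte confluency was below 70% of agonist controls in both mask sets.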

The test system of test [2] is RAW-Dual. In words: NF-kB SEAP reporter activity, fold change vs agonist alone; higher = enhanced NF-kB activity. As to conditions: library stock concentration (final ~1000-fold dilution): 10 mM. The essentials:
as §1

Test [3] relates to RAW-Dual. The test is described as follows: NF-kB SEAP reporter activity, fold change vs agonist alone; cytotoxicity flag (confluency mask): cytotoxic (confluency <70% of control); higher = enhanced NF-kB activity. The essentials: as §1
Where [4] appears, read: agonist: ODN 1826 (TLR9) 0.5 ug/mL.
Setting [5] is: agonist: Pam2CSK4 (TLR2/6) 0.1 ug/mL.
Where [6] appears, read: agonist: Pam3CSK4 (TLR2/1) 0.1 ug/mL.
The mark [7] stands for this setting: cytotoxicity flag (confluency mask): not cytotoxic, agonist: Imiquimod (TLR7) […].
Where [8] appears, read: cytotoxicity flag (confluency mask): not cytotoxic, agonist: MPLA (TLR4) […].

With `Cl.c1ccc(CN(CC2=NCCN2)c2ccccc2)cc1` (library stock concentration (final ~1000-fold dilution): 10 mM), the “NF-kB SEAP reporter activity” value was 1.02 in the test with RAW-Dual [1] (agonist: LPS (TLR4) 0.1 ug/mL), 0.674 in the test on RAW-Dual [1] (setting [4]), 0.951 in the test with RAW-Dual [1] (setting [5]) and 1.02 with RAW-Dual [1] (setting [6]).

On to `Cl.c1ccc(CN(CC2=NCCN2)c2ccccc2)cc1`, for which the “NF-kB SEAP reporter activity” value is 1.06 in the test on RAW-Dual [2] (setting [7]) and 1 with RAW-Dual [2] (setting [8]).

As to `CC(=O)c1ccc2c(c1)Nc1ccccc1S2` (library stock concentration (final ~1000-fold dilution): 10 mM), the “NF-kB SEAP reporter activity” value was determined as 1.06 in the test with RAW-Dual [1] (agonist: LPS (TLR4) 0.1 ug/mL), 1.04 in the test with RAW-Dual [1] (setting [4]), 0.867 with RAW-Dual [1] (setting [5]) and 0.872 in the test with RAW-Dual [1] (setting [6]).

For `CC(=O)c1ccc2c(c1)Nc1ccccc1S2`, the “NF-kB SEAP reporter activity” value with RAW-Dual [2] (setting [8]) was determined as 0.996.

Turning to `CCN(CC)C(=O)/C(C#N)=C/c1cc(O)c(O)c([N+](=O)[O-])c1`, the entries for the “NF-kB SEAP reporter activity” value with RAW-Dual [2] (setting [7]) and in the test on RAW-Dual [2] (setting [8]) were 1.05 and 0.938, respectively.

Regarding `CCN(CC)C(=O)/C(C#N)=C/c1cc(O)c(O)c([N+](=O)[O-])c1` (library stock concentration (final ~1000-fold dilution): 10 mM), the “NF-kB SEAP reporter activity” value with RAW-Dual [1] (agonist: LPS (TLR4) 0.1 ug/mL) was found to be 1.28; in the test on RAW-Dual [1] (setting [4]) it was 0.98; with RAW-Dual [1] (setting [5]), 1.07; in the test with RAW-Dual [1] (setting [6]), 1.19.

`CC(=O)Oc1cc(C(C)C)c(OCCN(C)C)cc1C.Cl`: the “NF-kB SEAP reporter activity” value is 0.78 in the test on RAW-Dual [2] (setting [7]) and 1 in the test with RAW-Dual [2] (setting [8]).

As for `CC(=O)Oc1cc(C(C)C)c(OCCN(C)C)cc1C.Cl` (library stock concentration (final ~1000-fold dilution): 10 mM), the “NF-kB SEAP reporter activity” value turned out to be 0.923 in the test with RAW-Dual [1] (agonist: LPS (TLR4) 0.1 ug/mL), 0.632 with RAW-Dual [1] (setting [4]), 0.952 with RAW-Dual [1] (setting [5]) and 0.718 in the test with RAW-Dual [1] (setting [6]).

As for `Cc1cc(F)c(Nc2ncnc3cc(OCc4ccccc4)ccc23)cc1O.Cl` (library stock concentration (final ~1000-fold dilution): 10 mM), the “NF-kB SEAP reporter activity” value turned out to be 0.472 with RAW-Dual [1] (agonist: LPS (TLR4) 0.1 ug/mL), 0.598 with RAW-Dual [1] (setting [4]), 0.618 with RAW-Dual [1] (setting [5]) and 0.593 in the test with RAW-Dual [1] (setting [6]).

Turning to `Cc1cc(F)c(Nc2ncnc3cc(OCc4ccccc4)ccc23)cc1O.Cl`, the entries for the “NF-kB SEAP reporter activity” value with RAW-Dual [2] (setting [7]) and with RAW-Dual [2] (setting [8]) were 1.07 and 0.639, respectively.

Regarding `O=C(O)C(Cc1c[nH]c2ccccc12)N1C(=O)c2ccccc2C1=O` (stereo not drawn) (library stock concentration (final ~1000-fold dilution): 10 mM), the “NF-kB SEAP reporter activity” value in the test with RAW-Dual [1] (agonist: LPS (TLR4) 0.1 ug/mL) was found to be 1.15; in the test with RAW-Dual [1] (setting [4]) it was 1.1; in the test with RAW-Dual [1] (setting [5]), 1.1; in the test on RAW-Dual [1] (setting [6]) it was 1.09.

Take `O=C(O)C(Cc1c[nH]c2ccccc12)N1C(=O)c2ccccc2C1=O` (stereo not drawn): the “NF-kB SEAP reporter activity” value stood at 1.14 with RAW-Dual [2] (setting [7]) and 1.12 in the test on RAW-Dual [2] (setting [8]).

`CCc1ccc(Cc2ccc3c(c2)[C@]2(OC3)O[C@H](CO)[C@@H](O)[C@H](O)[C@H]2O)cc1` (library stock concentration (final ~1000-fold dilution): 10 mM): the “NF-kB SEAP reporter activity” value amounted to 1.22 in the test on RAW-Dual [1] (agonist: LPS (TLR4) 0.1 ug/mL), 0.965 in the test on RAW-Dual [1] (setting [4]), 0.973 in the test with RAW-Dual [1] (setting [5]) and 1.13 with RAW-Dual [1] (setting [6]).

`CCc1ccc(Cc2ccc3c(c2)[C@]2(OC3)O[C@H](CO)[C@@H](O)[C@H](O)[C@H]2O)cc1`: the “NF-kB SEAP reporter activity” value was 0.807 in the test with RAW-Dual [2] (setting [7]) and 1.17 in the test with RAW-Dual [2] (setting [8]).

Consider `CCOC(=O)C1=C(C)NC(C)=C(C(=O)OCC)C1c1ccccc1/C=C/C(=O)OC(C)(C)C` (library stock concentration (final ~1000-fold dilution): 10 mM), for which the “NF-kB SEAP reporter activity” value in the test with RAW-Dual [1] (agonist: LPS (TLR4) 0.1 ug/mL) is 1.43 and 0.652; with RAW-Dual [1] (setting [4]) it was 1.01 and 0.861; with RAW-Dual [1] (setting [5]) it was 0.569 and 0.361; with RAW-Dual [1] (setting [6]), 0.984 and 0.45.

`CCOC(=O)NC1CCC2C(C1)CC1C(=O)OC(C)C1C2/C=C/c1ccc(-c2cccc(F)c2)cn1` (stereo not drawn) (library stock concentration (final ~1000-fold dilution): 10 mM): the “NF-kB SEAP reporter activity” value with RAW-Dual [1] (agonist: LPS (TLR4) 0.1 ug/mL) worked out at 0.824; with RAW-Dual [1] (setting [4]), 0.243; in the test on RAW-Dual [1] (setting [5]) it was 0.212; in the test with RAW-Dual [1] (setting [6]) it was 0.158.

Turning to `CCOC(=O)NC1CCC2C(C1)CC1C(=O)OC(C)C1C2/C=C/c1ccc(-c2cccc(F)c2)cn1` (stereo not drawn), the results for the “NF-kB SEAP reporter activity” value in the test on RAW-Dual [2] (setting [7]) and in the test with RAW-Dual [2] (setting [8]) were 0.145 and 0.289, respectively.

Turning to `CC#CC(=O)Nc1ccc2ncnc(Nc3cccc(Br)c3)c2c1`, the “NF-kB SEAP reporter activity” value in the test with RAW-Dual [2] (setting [7]) turned out to be 1.15; in the test with RAW-Dual [2] (setting [8]), 0.437.

On to `CC#CC(=O)Nc1ccc2ncnc(Nc3cccc(Br)c3)c2c1` (library stock concentration (final ~1000-fold dilution): 10 mM), for which the “NF-kB SEAP reporter activity” value with RAW-Dual [1] (agonist: LPS (TLR4) 0.1 ug/mL) was 0.28; in the test with RAW-Dual [1] (setting [4]), 0.399; with RAW-Dual [1] (setting [5]), 0.341; with RAW-Dual [1] (setting [6]), 0.369.

With `CNC1CCC(c2ccc(Cl)c(Cl)c2)c2ccccc21.Cl` (stereo not drawn), the “NF-kB SEAP reporter activity” value in the test with RAW-Dual [2] (cytotoxicity flag (confluency mask): cytotoxic (confluency <70% of control), agonist: Imiquimod (TLR7) […]) amounted to 1.64; in the test on RAW-Dual [2] (cytotoxicity flag (confluency mask): cytotoxic (confluency <70% of control), agonist: MPLA (TLR4) […]), 1.56.

As to `CNC1CCC(c2ccc(Cl)c(Cl)c2)c2ccccc21.Cl` (stereo not drawn) (library stock concentration (final ~1000-fold dilution): 10 mM), the “NF-kB SEAP reporter activity” value in the test with RAW-Dual [3] (agonist: LPS (TLR4) 0.1 ug/mL) stood at 0.879; in the test on RAW-Dual [3] (setting [4]), 0.405; in the test with RAW-Dual [3] (setting [5]), 0.42; in the test with RAW-Dual [3] (setting [6]), 0.484.

For `CCC(C(C)O)n1ncn(-c2ccc(N3CCN(c4ccc(OCC5COC(Cn6cncn6)(c6ccc(F)cc6F)C5)cc4)CC3)cc2)c1=O` (stereo not drawn), the “NF-kB SEAP reporter activity” value was determined as 1.9 with RAW-Dual [2] (setting [7]) and 1.87 with RAW-Dual [2] (setting [8]).

`CCC(C(C)O)n1ncn(-c2ccc(N3CCN(c4ccc(OCC5COC(Cn6cncn6)(c6ccc(F)cc6F)C5)cc4)CC3)cc2)c1=O` (stereo not drawn) (library stock concentration (final ~1000-fold dilution): 10 mM): the “NF-kB SEAP reporter activity” value in the test with RAW-Dual [1] (agonist: LPS (TLR4) 0.1 ug/mL) turned out to be 1.39; in the test on RAW-Dual [1] (setting [4]), 2.48; with RAW-Dual [1] (setting [5]), 1.07; in the test on RAW-Dual [1] (setting [6]), 0.999.

On to `CCCCc1ncc(/C=C(\Cc2cccs2)C(=O)O)n1Cc1ccc(C(=O)O)cc1.CS(=O)(=O)O` (library stock concentration (final ~1000-fold dilution): 10 mM), for which the “NF-kB SEAP reporter activity” value with RAW-Dual [1] (agonist: LPS (TLR4) 0.1 ug/mL) came to 0.937; in the test on RAW-Dual [1] (setting [4]), 0.959; in the test with RAW-Dual [1] (setting [5]) it was 0.969; in the test on RAW-Dual [1] (setting [6]) it was 1.04.

For `CCCCc1ncc(/C=C(\Cc2cccs2)C(=O)O)n1Cc1ccc(C(=O)O)cc1.CS(=O)(=O)O`, the “NF-kB SEAP reporter activity” value was 0.937 in the test with RAW-Dual [2] (setting [7]) and 0.953 in the test with RAW-Dual [2] (setting [8]).

`Oc1ccc(-c2c(-c3ccccc3)nn3c(C(F)(F)F)cc(C(F)(F)F)nc23)cc1` (library stock concentration (final ~1000-fold dilution): 10 mM): the “NF-kB SEAP reporter activity” value was 0.501 in the test with RAW-Dual [1] (agonist: LPS (TLR4) 0.1 ug/mL), 0.939 in the test with RAW-Dual [1] (setting [4]), 0.635 with RAW-Dual [1] (setting [5]) and 1.08 in the test with RAW-Dual [1] (setting [6]).

On to `Oc1ccc(-c2c(-c3ccccc3)nn3c(C(F)(F)F)cc(C(F)(F)F)nc23)cc1`, for which the figures for the “NF-kB SEAP reporter activity” value in the test with RAW-Dual [2] (setting [7]) and in the test on RAW-Dual [2] (setting [8]) were 0.991 and 1.07, respectively.

On to `NC1CC1c1ccc(-c2cccc(O)c2)cc1` (stereo not drawn) (library stock concentration (final ~1000-fold dilution): 10 mM), for which the “NF-kB SEAP reporter activity” value came out at 0.984 in the test on RAW-Dual [1] (agonist: LPS (TLR4) 0.1 ug/mL), 0.763 in the test on RAW-Dual [1] (setting [4]), 0.977 in the test with RAW-Dual [1] (setting [5]) and 1.1 with RAW-Dual [1] (setting [6]).

As to `NC1CC1c1ccc(-c2cccc(O)c2)cc1` (stereo not drawn), the figures for the “NF-kB SEAP reporter activity” value in the test with RAW-Dual [2] (setting [7]) and in the test on RAW-Dual [2] (setting [8]) were 0.951 and 1.02, respectively.

On to `CC1OC(OC2C(CO)OC(OCC3OC(OC(=O)[C@]45CC[C@@H](C)[C@H](C)[C@H]4C4=CCC6[C@@]7(C)C[C@@H](O)[C@@H](O)[C@@](C)(CO)C7CC[C@@]6(C)[C@]4(C)CC5)C(O)C(O)C3O)C(O)C2O)C(O)C(O)C1O` (stereo partly drawn) (library stock concentration (final ~1000-fold dilution): 10 mM), for which the “NF-kB SEAP reporter activity” value in the test with RAW-Dual [1] (agonist: LPS (TLR4) 0.1 ug/mL) worked out at 1.08; with RAW-Dual [1] (setting [4]), 0.915; in the test with RAW-Dual [1] (setting [5]), 1.06; in the test with RAW-Dual [1] (setting [6]) it was 1.1.

Take `CC1OC(OC2C(CO)OC(OCC3OC(OC(=O)[C@]45CC[C@@H](C)[C@H](C)[C@H]4C4=CCC6[C@@]7(C)C[C@@H](O)[C@@H](O)[C@@](C)(CO)C7CC[C@@]6(C)[C@]4(C)CC5)C(O)C(O)C3O)C(O)C2O)C(O)C(O)C1O` (stereo partly drawn): the “NF-kB SEAP reporter activity” value in the test on RAW-Dual [2] (setting [7]) was found to be 0.975; in the test with RAW-Dual [2] (setting [8]) it was 1.12.
